This note sets out measurements from paper PMC4336329 (PLoS ONE, 2015).

In all, about 310,000 compounds went through this assay and about 2,200 (0.71%) showed an effect of 50% or more. Effects have a minus sign here. Some of the results follow.

In this assay the target is human ether-à-go-go-related gene (hERG) potassium channel (human, UniProt Q12809). In words: primary screen, population patch clamp on CHO cells stably expressing hERG.
human ether-à-go-go-related gene (hERG) potassium channel, sequence (Q12809 whole entry, looked up): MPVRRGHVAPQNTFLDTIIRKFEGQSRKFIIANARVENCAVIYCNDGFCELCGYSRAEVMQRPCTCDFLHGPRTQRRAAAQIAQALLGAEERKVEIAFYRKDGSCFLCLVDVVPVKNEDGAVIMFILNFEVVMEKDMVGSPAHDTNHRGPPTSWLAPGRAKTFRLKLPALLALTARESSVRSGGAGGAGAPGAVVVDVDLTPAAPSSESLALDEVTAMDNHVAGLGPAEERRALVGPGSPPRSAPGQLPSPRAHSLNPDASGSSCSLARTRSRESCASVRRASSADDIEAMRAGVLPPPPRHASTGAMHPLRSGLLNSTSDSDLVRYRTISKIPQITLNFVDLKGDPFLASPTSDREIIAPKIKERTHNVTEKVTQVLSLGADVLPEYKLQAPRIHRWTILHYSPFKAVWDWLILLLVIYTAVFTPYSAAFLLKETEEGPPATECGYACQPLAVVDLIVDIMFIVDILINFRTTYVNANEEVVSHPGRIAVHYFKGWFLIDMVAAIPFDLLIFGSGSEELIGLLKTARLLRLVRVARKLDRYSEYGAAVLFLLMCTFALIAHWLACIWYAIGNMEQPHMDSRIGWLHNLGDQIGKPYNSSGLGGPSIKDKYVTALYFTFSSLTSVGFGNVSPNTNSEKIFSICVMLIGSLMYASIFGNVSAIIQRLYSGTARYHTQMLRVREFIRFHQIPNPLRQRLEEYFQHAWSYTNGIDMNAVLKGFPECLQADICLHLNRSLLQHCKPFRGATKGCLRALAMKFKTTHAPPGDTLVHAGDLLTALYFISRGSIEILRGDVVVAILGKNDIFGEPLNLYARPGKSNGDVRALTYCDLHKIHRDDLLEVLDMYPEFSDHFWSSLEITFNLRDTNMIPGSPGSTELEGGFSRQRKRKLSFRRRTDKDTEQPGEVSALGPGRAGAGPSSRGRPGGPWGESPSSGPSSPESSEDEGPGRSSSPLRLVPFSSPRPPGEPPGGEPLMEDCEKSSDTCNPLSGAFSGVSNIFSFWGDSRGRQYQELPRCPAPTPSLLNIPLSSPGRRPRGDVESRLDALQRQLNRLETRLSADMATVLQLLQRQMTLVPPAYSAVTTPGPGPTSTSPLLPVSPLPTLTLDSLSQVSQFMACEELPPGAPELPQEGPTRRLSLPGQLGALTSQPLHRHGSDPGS
On to `CCN1CCN(S(=O)(=O)c2ccc(Cl)c(C(=O)Nc3nnc(C)s3)c2)CC1`, for which the “hERG current change (%, negative = inhibition) at 1uM” value stood at 10.9%.

For the molecule `O=C(N/N=C/c1ccncc1)c1cc(Br)ccc1OCc1ccccc1`, the “hERG current change (%, negative = inhibition) at 1uM” value was -1.49%. With `CN1CCN(S(=O)(=O)c2cccc(C(=O)NCCOc3ccccc3)c2)CC1`, the “hERG current change (%, negative = inhibition) at 1uM” value is -0.534%.

Regarding `CCCCNC(=O)C1CCC(CNS(=O)(=O)c2ccc(C)cc2)CC1` (stereo not shown), the “hERG current change (%, negative = inhibition) at 1uM” value is given as 13%.

Turning to `O=C1CCCN1CCC1CCN(C(=S)Nc2ccc(F)cc2)CC1`, the “hERG current change (%, negative = inhibition) at 1uM” value is recorded as 0.262%. Next, `Cc1cc(NC(=O)CSc2nnnn2C2CCCC2)no1`: 12.5%; `NC(=O)COc1ccc2cc(-c3ccc(F)cc3)c(=O)oc2c1`: 14%. As for `Cc1ccc2nc(-c3cccc(S(=O)(=O)N4CCCC4)c3)cn2c1`, the figure is 9.96%; as for `COc1ccc(F)cc1S(=O)(=O)n1nc(C)cc1C`, 3.39%. For the molecule `C[n+]1ccc(C(=O)NCc2ccccc2)cc1.[I-]`, the “hERG current change (%, negative = inhibition) at 1uM” value is 24.3%. As for `COc1ccc(OC)c(-n2c(O)c(C=Nc3c(C)n(C)n(-c4ccccc4)c3=O)c(=O)[nH]c2=O)c1`, the figure is 19.7%; as for `O=C(Oc1c(-c2ccccc2Cl)oc2ccccc2c1=O)c1ccc(Cl)cc1`, 0.761%.

Take `CC(NC(=O)Cc1c(F)cccc1Cl)C1CCCO1` (stereo not shown): the “hERG current change (%, negative = inhibition) at 1uM” value is listed as 4.96%. `C[N+]1(C)CCC(OC(=O)C(O)(c2ccccc2)C2CCCC2)C1.[Br-]` (stereo not shown): the “hERG current change (%, negative = inhibition) at 1uM” value worked out at 14.6%.

As for `Cc1cc(CN(C)C(=O)c2ccc(OC3CCN(CCc4ccccc4)CC3)cc2)on1`, the “hERG current change (%, negative = inhibition) at 1uM” value is -77.5%. Next, `O=C(O)C1CCCNC1` (stereo not shown): -1.74%. Next, `C[C@@H]1CC[C@]2(O[C@H](CCO)C[C@@H](O)[C@@H]2O)O1`: 8.9%; `CCCC(=O)c1ccc(-c2ccccc2)cc1`: -0.0723%; `CN1CCC(N(CCc2ccccc2)C(=O)CCC(=O)O)CC1`: 12.9%.

On to `CC(Oc1cccc(Cl)c1)c1ccnc2nc(/N=C/N(C)C)nn12` (stereo not shown), for which the “hERG current change (%, negative = inhibition) at 1uM” value worked out at 7.85%. Consider `CCN(c1ccccc1)S(=O)(=O)c1ccc(Cl)c(C(=O)OCC(=O)NC(=O)C(C)C)c1`, for which the “hERG current change (%, negative = inhibition) at 1uM” value is recorded as 22.4%. As for `O=C(CCCCn1c(=O)[nH]c2ccccc2c1=O)NCCC1=CCCCC1`, the “hERG current change (%, negative = inhibition) at 1uM” value came to 7.59%. For the molecule `CN(CC(=O)NCc1cccs1)CC(=O)Nc1ccc(F)c(F)c1F`, the “hERG current change (%, negative = inhibition) at 1uM” value is -3.97%. As for `CC(=O)c1ccc(NC(=O)CCCN2C(=O)/C(=C/C(C)=C/c3ccccc3)SC2=S)cc1`, the figure is 15.3%; as for `O=C(N/N=C/c1ccc(OC(=O)c2ccco2)cc1)c1ccccn1`, 9.86%. Next, `NC(=O)CSc1nc2scc(-c3ccc(Cl)cc3)c2c(=O)n1Cc1ccccc1`: 12.3%; `Cc1ccc(-c2cn(-c3ccc(OC(F)F)cc3)c3[n+]2CCCCC3)cc1.[Br-]`: -13.3%; `COc1ccc(CCNS(=O)(=O)c2ccc3c(c2)NC(=O)CO3)cc1OC`: 13%. Next, `CCCCn1c(N)c(N(CCOC)C(=O)c2ccc(C)c(S(=O)(=O)N3CCOCC3)c2)c(=O)[nH]c1=O`: 8.24%; `O=C(Nc1nnc(CSCc2ccc(F)cc2)s1)c1cccc([N+](=O)[O-])c1`: 18.4%. Turning to `O=S(=O)(c1cc(Cl)ccc1Cl)N1CCN(Cc2ccco2)CC1`, the “hERG current change (%, negative = inhibition) at 1uM” value is given as 1.89%. As for `Cc1cc(C)c(NC(=O)COC(=O)Cc2cccs2)c(C)c1`, the “hERG current change (%, negative = inhibition) at 1uM” value is 10.9%. Next, `O=C(Nc1cccc(Br)c1)c1ccccc1-c1ccccc1`: -5.69%; `COC(=O)c1c(-c2ccccc2)csc1NC(=O)c1c(-c2ccccc2)noc1C`: -10%; `CCOc1cc2[nH]c(=S)n(CCCN3CCCC3=O)c(=O)c2cc1OCC`: 2.89%. Next, `CC(=O)c1ccc(NC(=O)C2Cc3ccccc3CN2C(=O)c2ccccc2)cc1` (stereo not shown): 13%; `CCC(OC(=O)c1ccco1)C(=O)NC1CCCC1` (stereo not shown): 8.14%; `CCC(C(=O)OCC(=O)Nc1cccc(S(=O)(=O)NC2=NCCCCC2)c1)c1ccccc1` (stereo not shown): 0.27%. With `CCC1(OC(=O)c2ccccc2)CC(C)N(C)CC1C.Cl` (stereo not shown), the “hERG current change (%, negative = inhibition) at 1uM” value is 9.95%. As for `O=C(CN1CCCC1)Nc1cc(F)ccc1F`, the figure is -3.94%. Next, `O=C(COC(=O)c1ccc([N+](=O)[O-])cc1Cl)NC(=O)c1ccccc1`: 14.5%; `Cc1coc2c1c(C)cc1oc(=O)c(CC(=O)NCCC(=O)O)c(C)c12`: 17.2%. Consider `COCc1cc(C)nc(N)c1C#N`, for which the “hERG current change (%, negative = inhibition) at 1uM” value turned out to be 9.47%. As for `Oc1ccc(/C=N/N2CCN(C3c4ccccc4-c4ccccc43)CC2)c(O)c1`, the figure is 1.21%. For `O=C(NNc1ncnc2ccccc12)c1cccc(Cl)c1`, the “hERG current change (%, negative = inhibition) at 1uM” value worked out at 12.8%. Consider `CC(C)CCNC(=O)CCc1nnc2n(CCCOC(C)C)c(=O)c3ccccc3n12`, for which the “hERG current change (%, negative = inhibition) at 1uM” value turned out to be 0.0861%. As for `COc1ccccc1OCCCC(=O)NC(C)c1ccccc1` (stereo not shown), the figure is 8%.

On to `C[C@]12CC[C@@H](O)C[C@H]1CC[C@@H]1[C@@H]2CC[C@]2(C)C(=O)CC[C@@H]12`, for which the “hERG current change (%, negative = inhibition) at 1uM” value is on record as 11.4%.

Turning to `CC(=O)C1C(c2ccc(Cl)cc2)c2c(n[nH]c2C)CC1(C)O` (stereo not shown), the “hERG current change (%, negative = inhibition) at 1uM” value is 14.4%.

For the molecule `CC(C)n1cc(C(=O)N(CC(=O)NC2CCCC2)Cc2ccccc2)cn1`, the “hERG current change (%, negative = inhibition) at 1uM” value worked out at 3.73%. Next, `CN(CC(=O)NCCCc1ccccc1)S(=O)(=O)c1ccc(Br)cc1`: 10.7%.

For `CCOc1ccccc1N1CCN(C(=O)c2ccccc2OCc2c(C)noc2C)CC1`, the “hERG current change (%, negative = inhibition) at 1uM” value worked out at 7.64%. As for `COc1cc(NC(=S)NCc2ccc(S(N)(=O)=O)cc2)c(OC)cc1Cl`, the figure is 0.0964%; as for `Cc1cc(C)nc(NC(=O)c2ccccc2O)n1`, 16.4%; as for `Cn1nnnc1SCSc1nnnn1C`, 8.16%. As for `Cn1c(SCC(=O)c2ccc(F)cc2)nnc1-c1ccccn1`, the “hERG current change (%, negative = inhibition) at 1uM” value is 12.2%. As for `CC1CN(S(=O)(=O)c2ccccc2)CC(C)O1` (stereo not shown), the figure is -1.04%; as for `COc1cc2c(cc1OC)C(Nc1ccccc1)=NC(C)(C)C2`, -4.73%.

With `CCCc1cc(=O)[nH]c(SCC(=O)Nc2ccccc2C#N)n1`, the “hERG current change (%, negative = inhibition) at 1uM” value amounted to 17.3%.

For `COc1ccc(C(=O)NC23CC4CC(CC(C4)C2)C3)cc1`, the “hERG current change (%, negative = inhibition) at 1uM” value came out at 14.3%. As for `COC(=O)Nc1ccc(S(=O)(=O)N2CCC(C)CC2)cc1`, the figure is -10.2%; as for `Cc1ccccc1S(=O)Cc1ccc(C(=O)NC2CCN(Cc3ccccc3)CC2)o1` (stereo not shown), 4.68%; as for `CCOC(=O)c1sc(NC(=S)NC(=O)c2cccc(OC)c2)nc1C`, 19.1%. As for `CCCCn1c(O)c(C(CC)=NCCCn2ccnc2)c(=O)[nH]c1=O`, the figure is 8.56%. For the molecule `CCOC(=O)c1sc(NC(=O)Nc2ccccc2F)nc1C`, the “hERG current change (%, negative = inhibition) at 1uM” value amounted to 3.34%. With `Cc1ccc(S(=O)(=O)c2nc(S(C)(=O)=O)sc2NCC2CCCO2)cc1` (stereo not shown), the “hERG current change (%, negative = inhibition) at 1uM” value was -16.2%. On to `COc1ccc(C(=O)Nc2ccc(OC)c([N+](=O)[O-])c2)cc1Br`, for which the “hERG current change (%, negative = inhibition) at 1uM” value was found to be 10.8%. Next, `CN(C)S(=O)(=O)Nc1ccccc1C(N)=O`: 12.2%; `O=C(NCCOC(=O)C1COc2ccccc2O1)C1COc2ccccc2O1` (stereo not shown): -4.55%.

With `CC(C)N(CCC(=O)c1ccc2ccccc2c1)Cc1ccccc1.Cl`, the “hERG current change (%, negative = inhibition) at 1uM” value is on record as 19.5%. Next, `CC(C)N(Cc1cn(C)nc1-c1cccc(Cl)c1)CC1CCC(=O)N1` (stereo not shown): 10.9%; `O=C(CSc1nnc(NC(=O)c2c(F)cccc2F)s1)NCc1ccc(F)cc1`: 8.31%; `O=C(CCN1C(=O)/C(=C/c2ccc(F)cc2)SC1=S)N[C@@H](CO)Cc1ccccc1`: 9.57%.

For the molecule `CC1CC(C)CN(C(=O)Cn2nnc(-c3ccc(Br)cc3)n2)C1` (stereo not shown), the “hERG current change (%, negative = inhibition) at 1uM” value was determined as 8.54%. Consider `Cn1cc(S(=O)(=O)N2CCOCC2)cc1C(=O)NCc1ccccc1Cl`, for which the “hERG current change (%, negative = inhibition) at 1uM” value is reported as -4.53%. As for `COc1ccc(CNCCCC(=O)Nc2c(Cl)ccc(C)c2Cl)cc1OC`, the figure is 7.55%. As for `Nc1nc(-c2ccc(Cl)cc2)nc(-c2ccc(Cl)cc2)n1`, the figure is 6.44%. Next, `CN(CCOc1ccccc1)Cc1nc2cc(Cl)ccc2c(=O)[nH]1`: 0.553%. Turning to `NNC(=O)CCc1c[nH]c2ccccc12`, the “hERG current change (%, negative = inhibition) at 1uM” value was 22.1%. As for `CSc1nc(N2CCOCC2)c2c3c(sc2n1)CCCC3`, the figure is 13.6%; as for `Cc1cc(=O)[nH]c(SCn2nnc3ccccc3c2=O)n1`, 3.07%.

With `COC(=O)c1ccccc1C(=O)N(Cc1cccnc1)CC1CCCN(C2CCCCC2)C1` (stereo not shown), the “hERG current change (%, negative = inhibition) at 1uM” value is recorded as -7.49%. In the case of `CCOc1ccccc1C1CC(=O)Nc2cc(OC)c(OC)c(OC)c21` (stereo not shown), the “hERG current change (%, negative = inhibition) at 1uM” value worked out at 15%. As for `CNC(=O)COC(=O)CCC(=O)c1ccc(Cl)cc1`, the figure is 14.8%. Turning to `Cn1c2ccccc2n2c(=O)c(Cl)c(-c3ccccc3)c(C#N)c12`, the “hERG current change (%, negative = inhibition) at 1uM” value is listed as 10%. For the molecule `N#CCCN1CCn2c1nc1ccccc12`, the “hERG current change (%, negative = inhibition) at 1uM” value turned out to be 16.7%. Take `COc1cc(C(=O)NCCc2cn3ccccc3n2)cc(OC)c1OC`: the “hERG current change (%, negative = inhibition) at 1uM” value came to 8.52%. As for `COc1ccc(-n2c(-c3ccc(Br)cc3)c[n+]3c2CCc2ccccc2-3)cc1.[Br-]`, the figure is -90.6%; as for `CC(OC(=O)c1cccc(S(=O)(=O)N2CCOCC2)c1)C(=O)NC1CCCCC1C` (stereo not shown), 7.75%; as for `CCC(C)N1CC(C(=O)NC2CCCCC2)CC1=O` (stereo not shown), 7.1%. Next, `OCCOCCn1c(-c2ccccc2)nc(=S)c2c1CCCC2`: 9.77%.
